Reference: article PMC7529893, “Structural basis for substrate recognition and chemical inhibition of oncogenic MAGE ubiquitin ligases” (Nature Communications, 2020)
Where a chain is given by its changes, count along the chain named. Names and notes keep the numbering of the source. These are yes or no findings as the source states them, for the method shown. In cells and extracts the contact can be indirect. Some entries that bind do so weakly or less than the wild type. Where a sequence is shown, tags or fusion partners need not be part of it. One block for each binder: values may come before it.

Columns and labels:
[1] = biological target: T1, GST-MAGE-A11 MHD (human MAGE-A11 MHD amino acid 218-429) (human) (UniProt P43364); experiment: pull-down; purified GST-tagged protein on glutathione Sepharose beads, in vitro translated Myc-tagged protein (rabbit reticulocyte lysate) added; 25 mM Tris pH 8.0, 2.7 mM KCl, 137 mM NaCl, 0.05% Tween-20, 10 mM 2-mercaptoethanol, 5% milk powder; immunoblot anti-Myc; only the target purified
T1 sequence: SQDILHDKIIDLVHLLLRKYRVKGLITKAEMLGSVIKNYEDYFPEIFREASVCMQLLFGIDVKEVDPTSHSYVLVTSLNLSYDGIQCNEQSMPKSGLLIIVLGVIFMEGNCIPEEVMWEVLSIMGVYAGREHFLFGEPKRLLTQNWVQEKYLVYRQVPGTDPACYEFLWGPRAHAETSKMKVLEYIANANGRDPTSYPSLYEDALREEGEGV

[2] = biological target: T2, GST-PCF11 (human PCF11 amino acid 637-702) (human) (UniProt O94913); experiment: as above
T2 sequence: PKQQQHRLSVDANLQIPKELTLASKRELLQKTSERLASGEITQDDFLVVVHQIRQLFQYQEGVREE

[3] = biological target: T3, Myc-MAGE-A3 wild-type, P43357; experiment: co-IP; HeLa cells transfected with the indicated constructs for 48 h; IP with anti-Myc, immunoblot; in Fig. 5i lysates were incubated with 100 µM SJ521054 or SJ1008066 for 24 h; conditions: remark: other sources report otherwise
T3 chain: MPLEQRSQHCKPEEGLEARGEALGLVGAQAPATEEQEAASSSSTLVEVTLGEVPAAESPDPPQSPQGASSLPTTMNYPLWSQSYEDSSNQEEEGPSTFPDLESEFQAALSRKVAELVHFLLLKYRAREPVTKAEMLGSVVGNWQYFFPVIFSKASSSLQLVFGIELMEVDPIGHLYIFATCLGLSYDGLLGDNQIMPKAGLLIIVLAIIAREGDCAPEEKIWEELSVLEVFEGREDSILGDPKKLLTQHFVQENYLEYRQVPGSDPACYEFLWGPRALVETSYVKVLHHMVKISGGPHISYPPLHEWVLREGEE

binding [1]: binds
B1: Myc-ZBTB7C (protein, UniProt A1YPR0 1-619)
chain: MANDIDELIGIPFPNHSSEVLCSLNEQRHDGLLCDVLLVVQEQEYRTHRSVLAACSKYFKKLFTAGTLASQPYVYEIDFVQPEALAAILEFAYTSTLTITAGNVKHILNAARMLEIQCIVNVCLEIMEPGGDGGEEDDKEDDDDDEDDDDEEDEEEEEEEEEDDDDDTEDFADQENLPDPQDISCHQSPSKTDHLTEKAYSDTPRDFPDSFQAGSPGHLGVIRDFSIESLLRENLYPKANIPDRRPSLSPFAPDFFPHLWPGDFGAFAQLPEQPMDSGPLDLVIKNRKIKEEEKEELPPPPPPPFPNDFFKDMFPDLPGGPLGPIKAENDYGAYLNFLSATHLGGLFPPWPLVEERKLKPKASQQCPICHKVIMGAGKLPRHMRTHTGEKPYMCTICEVRFTRQDKLKIHMRKHTGERPYLCIHCNAKFVHNYDLKNHMRIHTGVRPYQCEFCYKSFTRSDHLHRHIKRQSCRMARPRRGRKPAAWRAASLLFGPGGPAPDKAAFVMPPALGEVGGHLGGAAVCLPGPSPAKHFLAAPKGALSLQELERQFEETQMKLFGRAQLEAERNAGGLLAFALAENVAAARPYFPLPDPWAAGLAGLPGLAGLNHVASMSEANN

binding [2]: binds
B2: Myc-MAGE-A11 wild-type (in vitro translated) (protein, UniProt P43364 1-429)
chain: METQFRRGGLGCSPASIKRKKKREDSGDFGLQVSTMFSEDDFQSTERAPYGPQLQWSQDLPRVQVFREQANLEDRSPRRTQRITGGEQVLWGPITQIFPTVRPADLTRVIMPLEQRSQHCKPEEGLQAQEEDLGLVGAQALQAEEQEAAFFSSTLNVGTLEELPAAESPSPPQSPQEESFSPTAMDAIFGSLSDEGSGSQEKEGPSTSPDLIDPESFSQDILHDKIIDLVHLLLRKYRVKGLITKAEMLGSVIKNYEDYFPEIFREASVCMQLLFGIDVKEVDPTSHSYVLVTSLNLSYDGIQCNEQSMPKSGLLIIVLGVIFMEGNCIPEEVMWEVLSIMGVYAGREHFLFGEPKRLLTQNWVQEKYLVYRQVPGTDPACYEFLWGPRAHAETSKMKVLEYIANANGRDPTSYPSLYEDALREEGEGV

binding [2]: no binding
B3: Myc-MAGE-A11 I317R (in vitro translated) (protein, UniProt P43364 1-429)
chain: B2 chain with I317R

binding [2]: no binding
B4: Myc-MAGE-A11 M341R (in vitro translated) (protein, UniProt P43364 1-429)
chain: B2 chain with M341R

binding [1]: binds
B5: Myc-ANKRD65 (protein, UniProt E5RJM6 1-399)
chain: MDSQRPEPREEEEEEQELRWMELDSEEALGTRTEGPSVVQGWGHLLQAVWRGPAGLVTQLLRQGASVEERDHAGRTPLHLAVLRGHAPLVRLLLQRGAPVGAVDRAGRTALHEAAWHGHSRVAELLLQRGASAAARSGTGLTPLHWAAALGHTLLAARLLEAPGPGPAAAEAEDARGWTAAHWAAAGGRLAVLELLAAGGAGLDGALLVAAAAGRGAALRFLLARGARVDARDGAGATALGLAAALGRSQDIEVLLGHGADPGIRDRHGRSALHRAAARGHLLAVQLLVTQGAEVDARDTLGLTPLHHASREGHVEVAGCLLDRGAQVDATGWLRKTPLHLAAERGHGPTVGLLLSRGASPTLRTQWAEVAQMPEGDLPQALPELGGGEKECEGIESTG

binding [3]: binds
B6: AMPKα1, Q13131 1-559 (enzyme)
chain: MRRLSSWRKMATAEKQKHDGRVKIGHYILGDTLGVGTFGKVKVGKHELTGHKVAVKILNRQKIRSLDVVGKIRREIQNLKLFRHPHIIKLYQVISTPSDIFMVMEYVSGGELFDYICKNGRLDEKESRRLFQQILSGVDYCHRHMVVHRDLKPENVLLDAHMNAKIADFGLSNMMSDGEFLRTSCGSPNYAAPEVISGRLYAGPEVDIWSSGVILYALLCGTLPFDDDHVPTLFKKICDGIFYTPQYLNPSVISLLKHMLQVDPMKRATIKDIREHEWFKQDLPKYLFPEDPSYSSTMIDDEALKEVCEKFECSEEEVLSCLYNRNHQDPLAVAYHLIIDNRRIMNEAKDFYLATSPPDSFLDDHHLTRPHPERVPFLVAETPRARHTLDELNPQKSKHQGVRKAKWHLGIRSQSRPNDIMAEVCRAIKQLDYEWKVVNPYYLRVRRKNPVTSTYSKMSLQLYQVDSRTYLLDFRSIDDEITEAKSGTATPQRSGSVSNYRSCQRSDSDAEAQGKSSEVSLTSSVTSLDSSPVDLTPRPGSHTIEFFEMCANLIKILAQ

binding [2]: binds
B7: Myc-MAGE-A11 MHD (197–429) (domain or fragment, UniProt P43364 197-429)
chain: SGSQEKEGPSTSPDLIDPESFSQDILHDKIIDLVHLLLRKYRVKGLITKAEMLGSVIKNYEDYFPEIFREASVCMQLLFGIDVKEVDPTSHSYVLVTSLNLSYDGIQCNEQSMPKSGLLIIVLGVIFMEGNCIPEEVMWEVLSIMGVYAGREHFLFGEPKRLLTQNWVQEKYLVYRQVPGTDPACYEFLWGPRAHAETSKMKVLEYIANANGRDPTSYPSLYEDALREEGEGV

binding [1]: binds
B8: Myc-RACGAP1 (protein, UniProt Q9H0H5 1-632)
chain: MDTMMLNVRNLFEQLVRRVEILSEGNEVQFIQLAKDFEDFRKKWQRTDHELGKYKDLLMKAETERSALDVKLKHARNQVDVEIKRRQRAEADCEKLERQIQLIREMLMCDTSGSIQLSEEQKSALAFLNRGQPSSSNAGNKRLSTIDESGSILSDISFDKTDESLDWDSSLVKTFKLKKREKRRSTSRQFVDGPPGPVKKTRSIGSAVDQGNESIVAKTTVTVPNDGGPIEAVSTIETVPYWTRSRRKTGTLQPWNSDSTLNSRQLEPRTETDSVGTPQSNGGMRLHDFVSKTVIKPESCVPCGKRIKFGKLSLKCRDCRVVSHPECRDRCPLPCIPTLIGTPVKIGEGMLADFVSQTSPMIPSIVVHCVNEIEQRGLTETGLYRISGCDRTVKELKEKFLRVKTVPLLSKVDDIHAICSLLKDFLRNLKEPLLTFRLNRAFMEAAEITDEDNSIAAMYQAVGELPQANRDTLAFLMIHLQRVAQSPHTKMDVANLAKVFGPTIVAHAVPNPDPVTMLQDIKRQPKVVERLLSLPLEYWSQFMMVEQENIDPLHVIENSNAFSTPQTPDIKVSLLGPVTTPEHQLLKTPSSSSLSQRVRSTLTKNTPRFGSKSKSATNLGRQGNFFASPMLK
